The other results are listed elsewhere or left out. At the low end of the ranking, values are background and their order means little.
system: T1, GST-NbGlk1(82-244); assay: protein-binding microarray; settings: NbGlk1 is a Golden2-like transcription factor of Nicotiana benthamiana; high values mean tight binding; most listed sequences are background and not binding sites; double strand, one strand shown;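 further: rank-based score ranging −0.5 to +0.5 with E above 0.45 taken as significant binding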
T1 sequence: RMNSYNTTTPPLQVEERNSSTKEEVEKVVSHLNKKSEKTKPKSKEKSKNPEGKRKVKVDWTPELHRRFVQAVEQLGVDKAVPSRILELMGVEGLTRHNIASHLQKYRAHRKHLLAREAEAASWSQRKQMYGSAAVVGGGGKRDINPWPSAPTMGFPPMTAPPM

Sequence | binding signal [E-score]
AAACGGTC | -0.179
AGGAACTC | -0.282
AGATACTC | 0.368
AATTTTAC | 0.105
AGTCATAT | 0.0488
ATAGGGGA | -0.116
AATTTGAT | 0.119
AGAGAGGG | -0.185
ATACCCAA | 0.129
AGGGTGAT | -0.0791
ACACGTGC | -0.165
ATCGCGCA | 0.358
ATCCCTAA | 0.189
ATCGGTCG | 0.0893
CAAAATCC | 0.42
AGGACAAT | 0.145
ATTTTCAA | 0.262
CAGCGACG | -0.142
AACGTCCC | -0.205
AGGCATGG | -0.0963
ATTGCGTA | 0.367
AACTCGAA | -0.0283
ATGGTATC | 0.2
AGCATAAT | 0.196
AAACAACC | -0.0547

Sequence | binding signal [E-score]
ATGCTGCC | -0.174
AGGTGTGC | -0.232
AATCAATT | 0.213
ACCGTCTC | -0.204
ATGCCTCA | -0.0557
ACCTTCTG | -0.177
AAGTAAGA | 0.0937
AGTTCATC | -0.193
AACGCGGC | -0.137
ATCATAGA | 0.214
AATTAAGG | 0.086
AAATGATC | -0.0232
ATACAGTA | 0.138
CAGAAAGC | -0.168
AATGCCAT | -0.146
AGGGCTTG | -0.297
CAAGCACA | -0.187
ATCTTTCG | 0.194
ACTCTCAG | -0.154
ACAAAGGT | -0.178
ACGGCGAT | 0.07
AACGCCTC | -0.114
ACTTGTTC | -0.174
ACGCGTTC | -0.158
CAATTCTG | 0.11

Sequence | binding signal [E-score]
ACTCTTTA | 0.0474
AGCCCTCA | -0.216
CACAAAGG | -0.0927
AGCGCAAT | 0.303
CACAGTGC | -0.191
CAGCATGA | -0.122
AACCTTTG | -0.0599
ATCCCTGG | 0.0692
AGCGAATC | 0.459
AGGTTCGG | -0.046
ACTAACTG | -0.0666
ACGCGAAC | 0.000953
ACGCCCTA | -0.119
ACTCGGAG | -0.178
AAGTAACG | 0.0118
ATTAAGCG | 0.0263
ATATCTAA | 0.417
CAATAATG | 0.0949
ATTGTGAG | 0.163
ACGGGGCG | -0.146
ACCCTGCT | -0.216
AGGCAAAA | -0.0744
ACCACCAG | -0.123
ACGGCAGT | -0.229
CACATAAG | -0.0043

Sequence | binding signal [E-score]
AAAACTCA | -0.0461
AGGGAGCC | -0.262
AAGCATGT | -0.0505
AAAGAAGA | -0.0524
CAACGCGA | -0.00243
AGAATCAC | 0.373
ACTGAGTA | -0.0132
AACTAACC | -0.198
ACAGCCAA | -0.0295
AATATCTA | 0.402
AGTATATA | 0.227
AAACTGAA | 0.0759
AGAACCAC | -0.0682
ATCTCGCA | 0.324
AGGTTCAA | -0.0851
ATGAGGCG | -0.153
ACCAGAAA | 0.145
AGTCTCGA | 0.0436
ATTAAGAA | 0.201
AGGTTCTG | -0.104
AGATAGGG | -0.139
CACCAGGC | -0.188
CACCCGTA | -0.118
AGTTCAGC | -0.106
AGGTCACA | -0.223

Sequence | binding signal [E-score]
AAAAGGCG | -0.0954
AGAAGGCA | -0.179
AGGAGGAC | -0.355
CAAAGTTA | -0.116
CACCTCAA | -0.0678
ATAGCCAA | -0.0377
AGTGCTCC | -0.198
AAAGGGCA | -0.0723
AACTCACA | -0.0492
ATCATTAG | 0.0988
CAGACCAC | -0.299
AAGTGTGG | -0.00372
AGAGCTAG | -0.0258
AAAGGCTG | -0.217
AGCACGCG | -0.00665
ACCTACTA | -0.136
ACTACCAG | -0.262
ATCTTGGG | 0.216
ACCATTAG | -0.00593
AAGGGTCT | -0.254
AATAGCTA | -0.105
ACTGCACA | -0.0176
AAGACCAT | -0.0733
ACCCGATC | 0.0202
ACAGACTA | 0.0905

Sequence | binding signal [E-score]
CAGCCGTA | -0.0791
AGTTATCC | -0.0632
AAGCAGGA | -0.122
CAAGGTGG | -0.181
ACACTCAT | -0.0705
AGATGCAA | 0.0749
AGATTTAC | 0.349
AAGGCATG | -0.144
AATCAGGG | 0.313
ATCATTTG | 0.0724
AATGTAAC | -0.012
ACCGAAAA | 0.0713
ATGATTTA | 0.116
AAATTATC | 0.108
AGCTACCT | -0.223
CACGCATC | -0.174
ACCCCTCT | -0.194
ATGTCCCG | -0.0596
AGGGTCTC | -0.263
AGAGCCAC | -0.204
AAAGGGCT | -0.268
AAGGACCC | -0.25
ATGTATTC | 0.15
ACATACGA | -0.0127
CAAGCATC | -0.112

Sequence | binding signal [E-score]
ATTTAGGG | 0.0859
AGGCATAT | 0.0639
ATGTAACA | 0.0913
ACATCACT | 0.00108
ACCCGCTC | -0.233
ACAGAGAA | 0.189
AGGGTTGC | -0.183
ACCTTGAG | -0.16
AACGACTC | 0.0785
ACATTAAG | 0.0195
AACTGAAG | -0.102
ATTATCGG | 0.119
AGAAATTC | 0.0929
ACAGACGA | -0.0826
AATGTGGA | 0.0848
ATAGACAA | 0.0842
ATAATCGA | 0.216
AAACCACA | 0.0158
ACTTAGAG | -0.158
AACTAATA | 0.0382
ATAGAGTG | -0.0258
AGCGTCAC | -0.139
ATGTTACA | 0.0988
ATAGGATC | 0.255
AGAACTAG | -0.0587

Sequence | binding signal [E-score]
ATCCTAAT | 0.248
AATTAGTC | -0.0112
AGACAGTA | 0.119
CAACTTAA | -0.112
AGGTAGGA | -0.0115
AGACACAT | -0.0608
AGGTTGGA | -0.0311
ACCGTCGG | -0.142
AAGCGGTG | -0.151
AAGTCTAT | -0.0451
ATGTAATG | 0.0627
AAGAGCTT | -0.14
ATGTCTAC | -0.0959
AAGGAAAA | 0.0861
ACAAATAA | 0.23
ATTGTGAC | 0.192
ACCTCTAC | -0.227
ACCACTCT | -0.103
AGCCCAGG | -0.332
CAAAAGGC | -0.302
AGCGCGCG | -0.0377
AGCACCCA | -0.126
AGGCTATG | -0.067
ACGAAACT | 0.0808
AAATACTG | 0.183

Sequence | binding signal [E-score]
ATAGGCAC | -0.0932
AGTCGTAC | -0.159
ACCGGTGC | -0.201
AATATGGT | 0.17
AGTATGTA | 0.00207
ACCGGAAT | 0.243
AGAGTCGA | 0.0673
ACTGTGAC | -0.081
ACGCCGTA | -0.186
ACAAGACG | -0.2
ATATGCAT | 0.219
ATGAGAGC | -0.128
AGAGGGGG | -0.275
ACCATCGG | -0.28
ACTACGAT | 0.19
ACAAGAGC | -0.099
CACTGTTA | 0.0362
AGTCATCC | -0.195
AGCTTAAA | -0.0158

From paper PMC5836133
